Experimental data from PubChem BioAssay (NCI).
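Growth conditions: 96-well plates. Treatment: test compound, 48 hours, 5 concentrations. Analysis: linear interpolation between bracketing concentrations; unreached endpoints set to highest concentration. GI50 marks 50% less growth.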 Some entries of the source have several records that differ or are many. The other results are left out here. An entry can have further records. Records of one sample usually come from different ranges of test concentrations, not given here; some values may only mark the edge of a range. A tag in brackets gives the origin of a value. Letters hold for one entry only.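 TGI denotes the concentration required for complete inhibition of growth.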

Tests used:
Test in all cases: growth of human tumour cells (NCI), 48 h
[1] = system: NCI-H226 lung
[2] = system: NCI-H23 lung
[3] = system: NCI-H460 lung
[4] = system: NCI-H522 lung
[5] = system: NCI/ADR-RES ovarian
[6] = system: OVCAR-3 ovarian
[7] = system: OVCAR-4 ovarian
[8] = system: OVCAR-5 ovarian
[9] = system: OVCAR-8 ovarian
[10] = system: PC-3 prostate
[11] = system: RPMI-8226 leukemia
[12] = system: RXF 393 renal
[13] = system: SF-268 CNS
[14] = system: SF-295 CNS
[15] = system: SF-539 CNS
[16] = system: SK-MEL-2 melanoma
[17] = system: SK-MEL-28 melanoma
[18] = system: SK-MEL-5 melanoma
[19] = system: SK-OV-3 ovarian
[20] = system: SN12C renal
[21] = system: SNB-19 CNS
[22] = system: SW-620 colon
[23] = system: T-47D breast
[24] = system: TK-10 renal
[25] = system: U251 CNS
[26] = system: UACC-257 melanoma
[27] = system: UACC-62 melanoma
[28] = system: UO-31 renal

## Cc1nc(Nc2ncc(C(=O)Nc3c(C)cccc3Cl)s2)cc(N2CCN(CCO)CC2)n1
[1]
  GI50: 46.4 nM [sample A, 1 test] and 550 nM [sample A, mean of 4 tests] and 3.43 µM [sample B, 1 test]
  TGI: 20 µM [sample A, 1 test] and 21.8 µM [sample A, mean of 4 tests] and 36.7 µM [sample B, 1 test] and > 10 µM [sample C, mean of 2 tests]
[2]
  TGI: 20 µM [sample A, 1 test] and 20.8 µM [sample A, mean of 5 tests] and 19.2 µM [sample B, mean of 2 tests] and > 10 µM [sample C, mean of 2 tests]
[3]
  TGI: 20 µM [sample A, 1 test] and 25 µM [sample A, mean of 5 tests] and 31.4 µM [sample B, mean of 2 tests] and > 10 µM [sample C, mean of 2 tests]
[4]
  GI50: 115 nM [sample A, 1 test] and 63.8 nM [sample A, mean of 5 tests] and 162 nM [sample B, mean of 2 tests] and < 18.4 nM [sample C, mean of 2 tests]
  TGI: 15 µM [sample A, 1 test] and 8.12 µM [sample A, mean of 5 tests] and 14.5 µM [sample B, mean of 2 tests] and > 10 µM [sample C, mean of 2 tests]
[5]
  TGI: 20 µM [sample A, 1 test] and 40.7 µM [sample A, mean of 5 tests] and 45.4 µM [sample B, mean of 2 tests] and > 10 µM [sample C, mean of 2 tests]
[6]
  GI50: 174 nM [sample A, 1 test] and 203 nM [sample A, mean of 5 tests] and 745 nM [sample B, mean of 2 tests] and 120 nM [sample C, mean of 2 tests]
  TGI: 20 µM [sample A, 1 test] and 19.2 µM [sample A, mean of 5 tests] and > 61.7 µM [sample B, mean of 2 tests] and > 10 µM [sample C, mean of 2 tests]
[7]
  GI50: 7.06 µM [sample A, 1 test] and 7.59 µM [sample A, mean of 5 tests] and 7.94 µM [sample B, mean of 2 tests] and > 2.72 µM [sample C, mean of 2 tests]
  TGI: 20 µM [sample A, 1 test] and 51.9 µM [sample A, mean of 5 tests] and > 77.3 µM [sample B, mean of 2 tests] and > 10 µM [sample C, mean of 2 tests]
[8]
  TGI: 20 µM [sample A, 1 test] and 22.2 µM [sample A, mean of 5 tests] and 47.3 µM [sample B, mean of 2 tests] and > 10 µM [sample C, mean of 2 tests]
[9]
  TGI: 508 nM [sample A, 1 test] and 3.62 µM [sample A, mean of 5 tests] and > 77.9 µM [sample B, mean of 2 tests] and > 10 µM [sample C, mean of 2 tests]
[10]
  GI50: 2.26 µM [sample A, 1 test] and 184 nM [sample A, mean of 5 tests] and 107 nM [sample B, mean of 2 tests] and 6.81 µM [sample C, mean of 2 tests]
  TGI: 20 µM [sample A, 1 test] and 35 µM [sample A, mean of 5 tests] and 58.4 µM [sample B, mean of 2 tests] and > 10 µM [sample C, mean of 2 tests]
[11]
  GI50: 7.38 µM [sample A, 1 test] and 4.86 µM [sample A, mean of 5 tests] and 13.6 µM [sample B, mean of 2 tests] and > 10 µM [sample C, mean of 2 tests]
  TGI: 20 µM [sample A, 1 test] and 36.6 µM [sample A, mean of 5 tests] and 45.5 µM [sample B, mean of 2 tests] and > 10 µM [sample C, mean of 2 tests]
[12]
  GI50: 9.03 nM [sample A, 1 test] and 29.7 nM [sample A, mean of 3 tests] and < 10.5 nM [sample B, mean of 2 tests] and 2.92 nM [sample C, mean of 2 tests]
  TGI: 96.9 nM [sample A, 1 test] and 1.1 µM [sample A, mean of 3 tests] and 76.7 nM [sample B, mean of 2 tests] and 24.6 nM [sample C, mean of 2 tests]
[13]
  TGI: 20 µM [sample A, 1 test] and 24.5 µM [sample A, mean of 5 tests] and 25 µM [sample B, mean of 2 tests] and > 10 µM [sample C, mean of 2 tests]
[14]
  GI50: 3.32 µM [sample A, 1 test] and 1.05 µM [sample A, mean of 5 tests] and 3.96 µM [sample B, mean of 2 tests] and 257 nM [sample C, mean of 2 tests]
  TGI: 16.5 µM [sample A, 1 test] and 10.7 µM [sample A, mean of 5 tests] and 33 µM [sample B, mean of 2 tests] and > 10 µM [sample C, mean of 2 tests]
[15]
  TGI: 13.7 µM [sample A, 1 test] and 6.15 µM [sample A, mean of 5 tests] and 14.2 µM [sample B, mean of 2 tests] and 2.05 µM [sample C, mean of 2 tests]
[16]
  GI50: 7.77 µM [sample A, 1 test] and 1.13 µM [sample A, mean of 5 tests] and 13.5 µM [sample B, 1 test] and > 10 µM [sample C, mean of 2 tests]
  TGI: 20 µM [sample A, 1 test] and 19.9 µM [sample A, mean of 5 tests] and 36.6 µM [sample B, 1 test] and > 10 µM [sample C, mean of 2 tests]
[17]
  GI50: 9.17 µM [sample A, 1 test] and 6.23 µM [sample A, mean of 5 tests] and 7.35 µM [sample B, mean of 2 tests] and > 6.78 µM [sample C, mean of 2 tests]
[18]
  GI50: 6.75 µM [sample A, 1 test] and 4.53 µM [sample A, mean of 5 tests] and 10.8 µM [sample B, mean of 2 tests] and > 10 µM [sample C, mean of 2 tests]
  TGI: 20 µM [sample A, 1 test] and 18.2 µM [sample A, mean of 5 tests] and 23 µM [sample B, mean of 2 tests] and > 10 µM [sample C, mean of 2 tests]
[19]
  GI50: 224 nM [sample A, 1 test] and 38.3 nM [sample A, mean of 5 tests] and 204 nM [sample B, mean of 2 tests] and 77 nM [sample C, mean of 2 tests]
  TGI: 3.34 µM [sample A, 1 test] and 2.24 µM [sample A, mean of 5 tests] and 7.62 µM [sample B, mean of 2 tests] and 3.75 µM [sample C, mean of 2 tests]
[20]
  GI50: 28.5 nM [sample A, 1 test] and 55 nM [sample A, mean of 5 tests] and 15.1 nM [sample B, mean of 2 tests] and 12.8 nM [sample C, mean of 2 tests]
  TGI: 20 µM [sample A, 1 test] and 14.1 µM [sample A, mean of 5 tests] and 48.6 µM [sample B, mean of 2 tests] and > 10 µM [sample C, mean of 2 tests]
[21]
  TGI: 20 µM [sample A, 1 test] and 37.8 µM [sample A, mean of 5 tests] and > 90 µM [sample B, mean of 2 tests] and > 10 µM [sample C, mean of 2 tests]
[22]
  GI50: 8.44 µM [sample A, 1 test] and 9.39 µM [sample A, mean of 5 tests] and 13.3 µM [sample B, mean of 2 tests] and > 10 µM [sample C, mean of 2 tests]
  TGI: 20 µM [sample A, 1 test] and 24.9 µM [sample A, mean of 5 tests] and 34.6 µM [sample B, mean of 2 tests] and > 10 µM [sample C, mean of 2 tests]
[23]
  GI50: 411 nM [sample A, 1 test] and 185 nM [sample A, mean of 5 tests] and 1.5 µM [sample B, mean of 2 tests] and 95.6 nM [sample C, mean of 2 tests]
  TGI: 20 µM [sample A, 1 test] and 27.6 µM [sample A, mean of 5 tests] and 42.2 µM [sample B, mean of 2 tests] and > 10 µM [sample C, mean of 2 tests]
[24]
  TGI: 72.5 nM [sample A, 1 test] and 34.7 nM [sample A, mean of 5 tests] and 156 nM [sample B, mean of 2 tests] and 109 nM [sample C, mean of 2 tests]
[25]
  TGI: 20 µM [sample A, 1 test] and 19.7 µM [sample A, mean of 5 tests] and 21.8 µM [sample B, mean of 2 tests] and > 10 µM [sample C, mean of 2 tests]
[26]
  TGI: 17.4 µM [sample A, 1 test] and 18.9 µM [sample A, mean of 5 tests] and 38.5 µM [sample B, mean of 2 tests] and > 10 µM [sample C, mean of 2 tests]
[27]
  TGI: 20 µM [sample A, 1 test] and 17.1 µM [sample A, mean of 5 tests] and 18.3 µM [sample B, mean of 2 tests] and > 10 µM [sample C, mean of 2 tests]
[28]
  GI50: 19.7 nM [sample A, 1 test] and 37.7 nM [sample A, mean of 5 tests] and 25.7 nM [sample B, mean of 2 tests] and 7.45 nM [sample C, 1 test]
  TGI: 17 µM [sample A, 1 test] and 6.82 µM [sample A, mean of 5 tests] and 6.96 µM [sample B, mean of 2 tests] and 554 nM [sample C, 1 test]
